Measured values: the RNAGym collection of RNA variant scans (doi:10.1093/nar/gkz1192)
The source gives no read counts; variants with many changes may rest on few reads.

B1: CPEB3 Ribozyme (parent)
chain: UAACAGGGGGCCACAGCAGAAGCGUUCACGUCGCAGCCCCUGUCAGAUUCUGGUGAAUCUGCGAAUUCUGCUGUAUAUCUC

Variants of: B1
Assay: self-cleavage, relative activity (ratio to wild type); higher = more cleavage; in vitro, sequencing
Outline: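 Relative activity compares each variant's cleaved/total read fraction with that of the unmutated ribozyme. To get these fractions, barcoded CPEB3 ribozyme libraries from rounds of error-prone PCR were transcribed with T7 RNA polymerase for 5 hours at 37°C and then given 15 min of DNase I treatment before EDTA was added. The RNAs were reverse transcribed with template switching and sequenced on Illumina, and DNA sequencing linked barcodes to variants. A minimum of 5 reads applied, and three batches were averaged.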

| Variant | self-cleavage |
| --- | --- |
| A2U A18C U26A A35U A45U U72A | 0.07 |
| A3G A21G A35G U41A | 0.72 |
| A3G C17U C40U A45G | 0.24 |
| A2U A5U A28G U43C U54A A64G | 0.04 |
| A3C A28G A35C | 0.37 |
| A3C G16A U25C A28G U72C | 0.05 |
| A3G A18U C37U U43A | 0.43 |
| A3G A13C U25A U26C C50U C68U A75G | 0.06 |
| A2U A13U U69C A77G | 0.41 |
| A3G A5U G9A G10A A28G U48A | 0.11 |
| A3G A5U C14U A18G | 0.9 |
| A3C A21G A47U | 0.75 |
| A3G A21G U58C U60A A64U | 0.16 |
| A3G A18G G30U U54C | 0.06 |
| A3C G10A U25C U51A | 0.44 |
| A3G A18U U49C U69C | 0.03 |
| A3G A13G C34A G42A U74C | 0.12 |
| A2U A15U C62U A64G | 0.12 |
| A3G C12U U25G U51G U54C A57G | 0.34 |
| A3C A21G C40U A64G U78A | 0.22 |
| A2U A28G U54C U67C | 0.14 |
| A2U A35U U60C C62A | 0.07 |
| A2U A20C A45U A57C | 0.2 |
| A3G A15G U48C U54A | 0.5 |

| Variant | self-cleavage |
| --- | --- |
| A3G A20U A45U A57U G73C | 0.29 |
| A2U C4U A45G | 1.1 |
| A3G A35G G55U U66C | 1.09 |
| A2U G19C U41C U66C | 0.06 |
| A3G A35U U49C C68A | 0.06 |
| A3G A5G A35G U51A U66C U67C U72C | 0.44 |
| A3C A13G A20G U41A U43C A64U U69C | 0.08 |
| A3G A56G A75G | 0.42 |
| A3G A21U U31C C62U U72C | 0.07 |
| A2U G9A A18U A56U U78C | 0.04 |
| A2U A18G A28U U41C A47G U67C U72C | 0.16 |
| A3G A21G U25C | 0.57 |
| A3G A5U A15G G36U G61C | 0.39 |
| A3G A5U G9A | 0.58 |
| A2U A13G U60C | 0.33 |
| A3G A64G U66C | 0.44 |
| A2U G10C C59A U72C | 0.09 |
| A3G C14U U43A U67C U72C | 0.31 |
| A2U G24U A45G A47G U49A U51C | 0.12 |
| A3G C23U A35U U43C U67C C68A U80C | 0.15 |
| A3G A13G A28G A35G U60C A65G | 0.4 |
| A3G A18C U25A U60C U72C G73A A77G | 0.28 |
| A3G A15C U49G | 1.02 |
| A3G A15G G36C U58C U67G | 0.12 |

| Variant | self-cleavage |
| --- | --- |
| A3G A13G A15G C34A U60A A64G | 0.16 |
| A3G A13G G19A U48C | 0.54 |
| A3G A35U U69C U78C | 0.09 |
| A3G C17U C40A A64G U72G | 0.19 |
| A3G A13U A18U U31A U60C U78C | 0.2 |
| A2U A45G A56G | 0.51 |
| A3G A15G A45G | 0.59 |
| A3G A28G U31C C38G | 0.14 |
| A3G A21G U26C U43A U54C U69C U80C | 0.02 |
| A3G C4U C38A A57G U66C U78C U80C | 0.08 |
| A3G A5C A57G | 0.86 |
| A2U U60C U69A | 0.25 |
| A3G A15G U41G A45G | 0.6 |
| A3G C12A A45G U80C | 0.86 |
| A3C A15G U26C A28U | 0.57 |
| A3G A56U A64G | 0.54 |
| A3G A5G C38A | 0.5 |
| A3C U25G C68U U78C | 0.1 |
| A3G A21U A28G | 0.17 |
| A3G A21U A28U | 0.62 |
| A3G A13G G22A U60A G73A | 0.24 |
| A3G A13G U43A A56G | 0.49 |
| A2U A35G U41A U48C | 0.32 |
| A3G A5G U51A | 0.45 |

| Variant | self-cleavage |
| --- | --- |
| A3G A56U U60A U74A | 0.47 |
| A3G A5G A13G A20U A65G C71U | 0.26 |
| A3G A13U U51A A57U | 0.52 |
| A3G A65G U76C | 0.52 |
| A2U A5G U48C U76A | 0.53 |
| A3G A5G U25C U26C U51A A57G U69G | 0 |
| A3G A18G A20G U31A G36C A57C U60C | 0.05 |
| A2U A21G A35G U43C A45U A56G U58A | 0.17 |
| A3G A47G U66C | 0.43 |
| A3G A13G U31C U51C A57U | 0.21 |
| A3G A15G U31A U58A | 0.51 |
| A3G A35U U69G | 0.4 |
| A3G A15U A18G A45U | 0.17 |
| A3G A5G G7U C44U U48C A65G A77U | 0.08 |
| A3G A35G U54C U67A | 1.16 |
| A2U C39U U43C U51C A75G U76C | 0.29 |
| A2U A15G A28G U43C | 0.16 |
| A3G A13U U67C | 0.33 |
| A3G C27A U76A | 0.1 |
| A2U A5U U31A A35U A65C U78C | 0.07 |
| A3G A21G G61U C62G | 0.13 |
| A3G A20U G36U | 0.36 |
| A3G A5G A20U C23U A56G U69C U78C | 0.17 |
| A3G A45G U49C A57G U69G | 0.14 |

| Variant | self-cleavage |
| --- | --- |
| A3G A15U U69A | 0.11 |
| A3G A21G A77G | 0.85 |
| A3G C4U A5G G8A U25C C34U U69A | 0.1 |
| A3C G24A A45G G53A | 0.15 |
| A3G A20G U51A | 1.03 |
| A3G A45G A75U | 1.03 |
| A3C A18U U78C | 0.47 |
| A3G A5G A35G U51G U80A | 1.21 |
| A3G A20G G24A A28G U31C G36A U69C | 0.06 |
| A3G A13G A15U U49C A64U | 0.05 |
| A3G A28U A45G U78C | 0.51 |
| A2U U26A A45U U60C | 0.27 |
| A2U U25C C50A A56G | 0.26 |
| A2U A35G U76A U80C | 1.26 |
| A3G A18U G30U U72C U78A | 0.09 |
| A3G A45C U54C U58C U72A | 0.23 |
| A3G A18U A45U | 0.33 |
| A3G A47G U49C U67C G73C A75C | 0.23 |
| A3C A15U A28U U66C | 0.2 |
| A3G A5G A57G | 0.64 |
| A3G A20G U49C U54C A64G G73A | 0.53 |
| A2U A13U A15U A45G A65G | 0 |
| A3G A15G U43C A47G C59U U69G U72C | 0.15 |
| A3G A13G A28G U72C | 0.56 |

| Variant | self-cleavage |
| --- | --- |
| A3G A35U G46A U49C | 0.11 |
| A3G C14G U41A U43A | 0.13 |
| A3G C23A A35G A64G U67C U78A | 0.07 |
| A2U A13U A18C U41C A77G | 0.24 |
| A2U A18G G52A | 0.59 |
| A2U A45U A64G | 0.24 |
| A3G A18G U31A U41A U43A A45C | 0.11 |
| A3G A20G G24C U26A U49A A57G G63A | 0.05 |
| A3C C11G U80A | 1.08 |
| A3G A15G U48C U54A A64C | 0.43 |
| A3G A21G U41A A45U U60C A64G | 0.12 |
| A2U C38U A47G | 0.72 |
| A3G A15G U51C U67A U72A | 0.24 |
| A3G A5G A15G A35U U69A | 0.3 |
| A3G A28G U80C | 0.98 |
| A3G A56G U67C | 0.39 |
| A3G C11U U26C U49C A57G | 0.21 |
| A3G A5G G8C A18G A75U U80A | 0.12 |
| A3G A13G A15G G30U C50A A57C U58A | 0.08 |
| A3G A15U A65C U66C C71A | 0.18 |
| A3G C11G U26A U58A U60A U72A | 0.07 |
| A2U C17U U31C U51C | 0.08 |
| A3G A15G A18U U48C U51C A64G U78C | 0 |
| A3G A18U A35G A56G U58C | 0.34 |

| Variant | self-cleavage |
| --- | --- |
| A3G A35G U66C | 1.17 |
| A2U U41C A77U | 1.04 |
| A2U U26C A47G | 0.71 |
| A3G A56U A64U U69A A77G | 0.26 |
| A3G C27U U80C | 0.61 |
| A3G C11G C14G A20G U66C | 0.09 |
| A3G A18U U54C | 0.75 |
| A3G A35G A64U | 1.12 |
| A3C C17G C38A A45G U51A U58C A65U | 0.08 |
| A3C G16A C50U U60G U78C | 0.14 |
| A3G A21G C40U U49C U67A U72C | 0.04 |
| A3G C12U U54C U60A U80C | 0.48 |
| A3C A21C U26C U49A | 0.53 |
| A3C A5U A18G A35G U60A | 0.97 |
| A2U A18U C23U U54C A57G U69A | 0.21 |
| A2U U26C U43C U66C | 0.38 |
| A2U A20C U26A U41A A56U A57G | 0.19 |
| A2U A20G U67C | 0.86 |
| A2U G24U A28U A35U U72A | 0.05 |
| A3G A13C U25C A45C U51A U80G | 0.05 |
| A2U C4A A20G U49C A56G | 0.94 |
| A3G A20U A64U | 0.67 |
| A2U A15G A47G U54C U58C U74C C79A | 1.33 |
